# According to PubChem BioAssay AID504832 (National Center for Advancing Translational Sciences (NCATS), 2011):
# In all, about 310,000 compounds went through this assay and about 18,000 (5.8%) were called active. The inconclusive results got no clear call from the source; some entries with a clear call stand among them for comparison. The call rests on the fitted dose curve; in most records, active means well fitted inhibition curve with a large enough effect; inconclusive means small, poorly fitted or top-dose-only effect, or another doubt; inactive means no such curve, though single readings can be large or run the other way. No potency is given beside an inconclusive call; the fits are too rough.
# Experiment: Primary qHTS for delayed death inhibitors of the malarial parasite plastid, 48 hour incubation
# Conditions: P. falciparum luciferase growth in erythrocytes; series mostly up to 28.7 µM
# Method in brief: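 Firefly luciferase activity from engineered P. falciparum reports growth; inhibitors lower the luminescent signal. Cultures contained 2% hematocrit erythrocytes at 0.1% final parasitemia.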
# Potency means the concentration at half of the fitted maximal effect; tags describe the fitted curve by direction and shape.
row,Structure (SMILES),Potency
1,O=C(COc1ccccc1)NC1CCCN(Cc2ccccc2F)C1 (centres undefined),"inconclusive [inhibitor, single point]"
2,CNC(=O)c1c(NC(=O)CS(=O)(=O)c2ccc(F)cc2)sc(C)c1C,inactive
3,CCC(C)NC(=O)Cn1c(=O)n(CCCCCC(=O)Nc2ccccc2)c(=O)c2sccc21 (centres undefined),"inconclusive [inhibitor, partial curve, poor fit]"
4,COCC(C)NC(=O)NC1(C(F)(F)F)Oc2ccc(Cl)cc2O1 (centres undefined),"inconclusive [inhibitor, single point]"
5,COC(=O)C1=C(c2ccc(F)cc2OCc2ccccc2)C[C@@H]2CC[C@H]1N2C(=O)NC1CC1,"inconclusive [inhibitor, single point]"
6,COc1ccccc1-n1c(C)cc(/C=C2/C(=N)N3C(=NC2=O)SN=C3S(C)(=O)=O)c1C,"inconclusive [inhibitor, partial curve, poor fit]"
7,COc1cccc(C2CC(c3ccc(NS(C)(=O)=O)cc3)=NN2C(=O)c2ccccc2)c1OC (centres undefined),"inconclusive [inhibitor, full curve, poor fit]"
8,Cc1ccc(-c2[nH]ncc2/C=N/n2c(C)nc3ccccc3c2=O)cc1,inactive
9,CN(C)CCn1cnc2c(c1=N)C(c1ccccc1)c1ccc3ccccc3c1O2 (centres undefined),active: 5.22 µM
10,O=C(CN1C(=O)N/C(=C\c2ccccc2OCc2ccc(C(=O)O)cc2)C1=O)Nc1ccc(F)cc1,inactive
11,N/C(=N\OC(=O)c1cccc2ccccc12)c1cccnc1,"inconclusive [inhibitor, single point]"
12,Cc1cccc(CNc2ncnc3ccc(-c4cccnc4)cc23)c1,active: 11.7 µM
13,Cc1ccc(CN(C(=O)c2sc3ccccc3c2Cl)C2CCS(=O)(=O)C2)cc1 (centres undefined),"inconclusive [inhibitor, single point]"
14,COc1cccc(NCc2cc(=O)oc3cc(C)c(C(C)C)cc23)c1,"inconclusive [inhibitor, partial curve, poor fit]"
15,CC(C)NCC(O)c1ccc(N)c(C#N)c1 (centres undefined),inactive
16,CCOc1cc(/C=N/NC(=O)c2cccc(S(=O)(=O)N3CCOCC3)c2)ccc1OCC(=O)N(C)C,"inconclusive [inhibitor, partial curve, poor fit]"
17,Oc1ccccc1/C=N/c1c(-c2ccco2)nc2ccccn12,inactive
18,COc1ccc(CCNc2nc(-c3ccco3)cc(C(F)(F)F)n2)cc1OC,"inconclusive [inhibitor, single point]"
19,CCCCc1ccc(NC(=O)Nc2c(C)n(C)n(-c3ccccc3)c2=O)cc1,inactive
20,Cc1ccc(S(=O)(=O)Nc2ccc3cn[nH]c3c2)c(C)c1,"inconclusive [inhibitor, single point]"
21,Cc1ccc(C(=O)N2CCN3C(=O)c4ccccc4C23c2ccccc2)cc1 (centres undefined),"inconclusive [inhibitor, single point]"
22,S=C1NC[C@H](CC2CCCCC2)N1CCc1cccc2ccccc12,"inconclusive [inhibitor, single point]"

row,Structure (SMILES),Potency
1,O=C1CCCCN1CCc1c[nH]c2ccccc12,inactive
2,O=C(c1cccs1)N1CCC(c2nc3c(nnn3Cc3c(Cl)cccc3Cl)c(=O)[nH]2)CC1,active: 5.86 µM
3,O=C(c1ccc(Br)cc1)c1cc2ccc(O)cc2oc1=O,inactive
4,Cc1ncoc1C(=O)NC1CCCc2c1cnn2-c1ccc(C(C)(C)C)cc1 (centres undefined),"inconclusive [inhibitor, partial curve]"
5,CCOC(=O)[C@H]1[C@H]2COc3ccc(OC)cc3[C@@H]2N2C(=O)CN(CCc3c[nH]c4ccccc34)C(=O)[C@@]12C,active: 13.1 µM
6,CC(C)(C)n1nnnc1C(c1cccs1)N1CCCC2(CCCCC2)C1 (centres undefined),active: 5.22 µM
7,COc1ccc(CCNC(=O)C2CCC(CNS(=O)(=O)c3ccc(F)cc3)CC2)cc1OC (centres undefined),"inconclusive [inhibitor, partial curve, poor fit]"
8,COc1ccccc1NC(=O)Nc1nnc(CC(=O)Nc2ccccc2)s1,"inconclusive [inhibitor, single point]"
9,O=C(Nc1cccnc1)c1cccc(S(=O)(=O)Nc2ccccc2F)c1,"inconclusive [inhibitor, single point]"
10,CC(=O)N/C(=C\c1ccccc1)C(=O)OCC(=O)Nc1cc(S(=O)(=O)N(C)C)ccc1C,"inconclusive [inhibitor, single point]"
11,Cc1cc(C=O)c(C)n1-c1cc(C(=O)O)cc(C(=O)O)c1,"inconclusive [inhibitor, partial curve, poor fit]"
12,COc1ccccc1N/C(=N/S(=O)(=O)c1ccc(C)cc1)c1ccc(Cl)cc1,"inconclusive [inhibitor, single point]"
13,O=C(C1=C(O)C(=O)N(CCN2CCOCC2)C1c1cccc(O)c1)c1cc2ccccc2o1 (centres undefined),inactive
14,Nc1nnc(SCC(=O)OCC(=O)NC23CC4CC(CC(C4)C2)C3)s1,active: 13.1 µM
15,Cc1cc(C(=O)N2CCOCC2)c(C)o1,inactive
16,CCN(C(=O)Cc1nc(N)n[nH]1)C1(C(=O)Nc2ccccc2)CCCCC1,"inconclusive [inhibitor, full curve, poor fit]"
17,CON/C=C(\C=Nc1ccc(C(F)(F)F)cc1)c1ncc(C(F)(F)F)cc1Cl,"inconclusive [inhibitor, single point]"
18,CCc1cccc2c(C(=O)COC(=O)c3ccc([N+](=O)[O-])s3)c[nH]c12,"inconclusive [inhibitor, partial curve]"
19,COc1ccc(N2CCN(C(=O)CN3CCN(C(c4ccccc4)c4ccccc4)CC3)CC2)cc1,"inconclusive [inhibitor, partial curve, poor fit]"
20,COc1ccc(NC2CCCN(C(=O)c3cccc(N4CCNC4=O)c3)C2)cc1 (centres undefined),"inconclusive [inhibitor, partial curve, poor fit]"
21,Cc1cccc(NC(=O)CSc2nnc([C@@H]3CCCN3C(=O)OC(C)(C)C)o2)c1C,"inconclusive [inhibitor, single point]"
22,O=C(CN1CCN(CCO)CC1)Nc1ccc(Cl)cc1C(=O)c1ccccc1,"inconclusive [inhibitor, single point]"

row,Structure (SMILES),Potency
1,CCOC(=O)C1=C(COc2ccc(C)cc2)NC(=O)NC1c1cc(C)ccc1C (centres undefined),"inconclusive [inhibitor, partial curve]"
2,COC(=O)c1c(C)n(Cc2ccc3c(c2)OCO3)c2ccc(O)cc12,"inconclusive [inhibitor, single point]"
3,CC(C)NC(=S)Nc1ccc2nc3n(c(=O)c2c1)CCCCC3,inactive
4,COc1ccc(-n2nc(C(=O)Nc3ccc4c(c3)OCO4)c3ccccc3c2=O)c(OC)c1,"inconclusive [inhibitor, partial curve]"
5,CCN1C(=O)[C@H]2[C@@H](c3ccc(-c4ccc(OC)cc4)cc3)N[C@@](CC(C)C)(C(=O)OC)[C@H]2C1=O,active: 11.7 µM
6,COc1ccc(CNC(=O)C2CCN(S(=O)(=O)c3ccc4c(c3)C(C)(C)C(=O)N4C)CC2)cc1,"inconclusive [inhibitor, full curve, poor fit]"
7,COC(=O)c1ccc(C23CC4(C2)[C@H](CN(Cc2ccc(-c5ccccc5)cc2)[C@@H]4c2ccccc2)C3c2ccccc2)cc1 (some centres undefined),"inconclusive [inhibitor, single point]"
8,O=C(Cn1cc2c(n1)CCCC2)Nc1cc(-c2cccc(Cl)c2)no1,"inconclusive [inhibitor, partial curve, poor fit]"
9,Cc1noc(C)c1COc1cccc(C(=O)Nc2ccccc2N2CCOCC2)c1,"inconclusive [inhibitor, single point]"
10,CN(C)C1=NC[C@H](Cc2ccccc2)N1CC1CCC(C(C)(C)C)CC1 (some centres undefined),"inconclusive [inhibitor, partial curve, poor fit]"
11,CCOc1ccc(N(C)S(=O)(=O)c2cc(-c3cc(C)no3)ccc2OC)cc1,"inconclusive [inhibitor, single point]"
12,COc1ccc(OCCCC(=O)Nc2cccc(S(=O)(=O)N3CCCCCC3)c2)cc1,"inconclusive [inhibitor, single point]"
13,COc1ccc(CN2CCN(Cc3ccc(C(F)(F)F)cc3)CC2)cc1,"inconclusive [inhibitor, single point]"
14,COC(=O)c1c(-c2c(Cl)cccc2Cl)noc1C(=O)NN,"inconclusive [inhibitor, single point]"
15,CNC(C)C(=O)NC(C(=O)N1CCCC1C(=O)Nc1ccc2ncccc2c1)C(C)C (centres undefined),inactive
16,COc1ccc(OC)c(C(c2nnnn2C2CCCC2)N2CCN(c3ccccc3)CC2)c1 (centres undefined),"inconclusive [inhibitor, single point]"
17,CCOC(=O)c1cc2c(=O)[nH]ccc2nc1C(F)(F)F,"inconclusive [inhibitor, partial curve, poor fit]"
18,COc1cccc(-c2csc(N3CCC(C(N)=O)CC3)n2)c1,"inconclusive [activator, full curve]"
19,O=C(NC1CCSc2ccccc21)c1cccc([N+](=O)[O-])c1 (centres undefined),active: 1.47 µM
20,Cc1cccc(NC(=O)c2ccco2)c1C,inactive
